Laboratory results from the antibiotic and cytotoxicity screens of Wong et al. (2023).
The other results are listed elsewhere or left out.

The molecules below were run on HepG2 (assay: cytotoxicity call (relative viability < 0.9)). Details: 10 µM.

Compound | cytotoxicity call
Cc1noc(C)c1S(=O)(=O)N(C)C[C@@H]1Oc2ccc(NC(=O)C3CC3)cc2CC(=O)N([C@H](C)CO)C[C@@H]1C | inactive
C[C@@H]1CN([C@H](C)CO)C(=O)c2cccc(NC(=O)Nc3ccc4c(c3)OCO4)c2O[C@@H]1CN(C)C(=O)Nc1ccc(C(F)(F)F)cc1 | inactive
CC[C@@H](NC)C(=O)O | inactive
C[C@H]1CN([C@@H](C)CO)C(=O)c2cc(NC(=O)Nc3ccc(C(F)(F)F)cc3)ccc2O[C@H]1CN(C)S(=O)(=O)c1ccc(F)cc1 | active
C[C@@H]1CN([C@@H](C)CO)C(=O)c2cc(NC(=O)C3CCCCC3)ccc2O[C@@H]1CN(C)Cc1ccc(Cl)c(Cl)c1 | inactive
Cc1nccn1CCc1nc(N)nc(N)n1 | inactive
CC1(C)OCC(CO)([N+](=O)[O-])CO1 | inactive
C[C@@H]1CN([C@H](C)CO)C(=O)c2cccc(NC(=O)c3ccncc3)c2O[C@@H]1CN(C)S(=O)(=O)c1ccccc1 | inactive
C[C@H]1CN([C@@H](C)CO)C(=O)c2cccc(NC(=O)Nc3ccc(C(F)(F)F)cc3)c2O[C@H]1CN(C)Cc1ccncc1 | inactive
C[C@H]1CN([C@@H](C)CO)S(=O)(=O)c2ccc(C#CC3CCCCC3)cc2O[C@@H]1CN(C)C(=O)Cc1ccncc1 | inactive
CN1CCN(C(=O)C[C@@H]2C=C[C@H](NS(=O)(=O)c3cccc(F)c3)[C@H](CO)O2)CC1 | inactive
CCCCCCc1nc(-c2ccc(-c3ccc(Cl)c(Cl)c3)o2)cc2c1[Si](C(C)C)(C(C)C)OC2 | inactive
COCC#Cc1cnc2c(c1)C(=O)N([C@H](C)CO)C[C@H](C)[C@@H](CN(C)C(C)=O)O2 | inactive
COc1ccc(S(=O)(=O)Nc2ccc3c(c2)C(=O)N([C@H](C)CO)C[C@H](C)[C@@H](CN(C)Cc2ccc(C(F)(F)F)cc2)OCCCC[C@H](C)O3)cc1 | inactive
CCCCc1oc2ccccc2c1C(=O)c1cc(I)c(OCCN(CC)CC)c(I)c1.Cl | active
COCCOC(=O)N1C(=O)[C@@]2(c3cc(C#CCCO)ccc31)[C@H](C(=O)Nc1nc3ccccc3s1)[C@H]1C(=O)O[C@H](c3ccccc3)[C@H](c3ccccc3)N1[C@@H]2c1ccc(O)cc1 | inactive

Compound | cytotoxicity call
CC1CCC(NC(=O)N(CCCl)N=O)CC1 (configuration not stated) | inactive
CCCNC(=O)Nc1ccc2c(c1)OC[C@H](C)N(C(=O)C1CCOCC1)C[C@@H](C)[C@@H](OC)CN(C)C2=O | inactive
Cc1noc(C)c1NC(=O)N(C)C[C@H]1Oc2ccc(NS(=O)(=O)c3cccs3)cc2CC(=O)N([C@@H](C)CO)C[C@H]1C | inactive
Cl.Clc1cccc(Cl)c1N=C1NCCN1 | inactive
OCCN1CCN(c2ncnc3c2ncn3[C@H]2CN(Cc3ccc(F)cc3)C[C@@H](CO)O2)CC1 | inactive
C[C@@H]1CCCCO[C@H](CN(C)Cc2ccc3c(c2)OCO3)[C@@H](C)CN([C@H](C)CO)C(=O)c2cc(NC(=O)Nc3ccc(C(F)(F)F)cc3)ccc2O1 | active
C[C@H](CO)N1C[C@H](C)[C@@H](CN(C)Cc2ccc(Oc3ccccc3)cc2)Oc2c(NC(=O)CCCCCC(=O)Nc3ccccc3N)cccc2C1=O | inactive
C[C@@H](O)C#Cc1ccc2c(c1)O[C@@H](CN(C)C(=O)c1ccncc1)[C@@H](C)CN([C@@H](C)CO)S2(=O)=O | inactive
Cc1noc(C)c1NC(=O)Nc1ccc2c(c1)CC(=O)N([C@H](C)CO)C[C@H](C)[C@H](CN(C)S(=O)(=O)c1ccccc1)O2 | inactive
C[C@H](CO)N1C[C@H](C)[C@H](CN(C)C(=O)Nc2cccc3ccccc23)Oc2ccc(NC(=O)C3CCCCC3)cc2C1=O | inactive
C[C@H](CO)N1C[C@H](C)[C@H](CN(C)C(=O)Nc2cccc3ccccc23)Oc2ccc(NC(=O)CCC(F)(F)F)cc2C1=O | inactive
C[C@@H]1CN([C@H](C)CO)C(=O)c2cc(NC(=O)CCC(F)(F)F)ccc2O[C@H]1CN(C)S(C)(=O)=O | inactive
C[C@@H]1CN([C@H](C)CO)C(=O)c2cc(NC(=O)CCCN(C)C)ccc2O[C@H]1CN(C)S(=O)(=O)c1cn(C)cn1 | inactive
C[C@H](CO)N1C[C@H](C)[C@H](CN(C)C(=O)CCC(F)(F)F)OCCCC[C@H](C)Oc2ccc(NS(=O)(=O)c3ccc(Cl)cc3)cc2C1=O | inactive
Cc1c(C(=O)Nc2ccc3ccccc3c2)oc2ccccc12 | active
CC1(C)CC(NC(=O)c2ccc(Cl)c(S(=O)(=O)N(Cc3ccccc3)c3ccccc3)c2)CC(C)(C)N1 | active
